The text below walks through data of publication PMC4336329 (PLoS ONE, 2015).

In all, about 310,000 compounds went through this assay and about 14,000 (4.5%) showed an effect of 50% or more. The effect is printed as a negative number. The list shows a part of the results.
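Also: peak tail current of the secondary pulse compared with the same well before compound.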

The target of this assay is human ether-à-go-go-related gene (hERG) potassium channel (human, UniProt Q12809). Briefly: primary screen, population patch clamp on CHO cells stably expressing hERG.
Chain of human ether-à-go-go-related gene (hERG) potassium channel (Q12809 whole entry, looked up): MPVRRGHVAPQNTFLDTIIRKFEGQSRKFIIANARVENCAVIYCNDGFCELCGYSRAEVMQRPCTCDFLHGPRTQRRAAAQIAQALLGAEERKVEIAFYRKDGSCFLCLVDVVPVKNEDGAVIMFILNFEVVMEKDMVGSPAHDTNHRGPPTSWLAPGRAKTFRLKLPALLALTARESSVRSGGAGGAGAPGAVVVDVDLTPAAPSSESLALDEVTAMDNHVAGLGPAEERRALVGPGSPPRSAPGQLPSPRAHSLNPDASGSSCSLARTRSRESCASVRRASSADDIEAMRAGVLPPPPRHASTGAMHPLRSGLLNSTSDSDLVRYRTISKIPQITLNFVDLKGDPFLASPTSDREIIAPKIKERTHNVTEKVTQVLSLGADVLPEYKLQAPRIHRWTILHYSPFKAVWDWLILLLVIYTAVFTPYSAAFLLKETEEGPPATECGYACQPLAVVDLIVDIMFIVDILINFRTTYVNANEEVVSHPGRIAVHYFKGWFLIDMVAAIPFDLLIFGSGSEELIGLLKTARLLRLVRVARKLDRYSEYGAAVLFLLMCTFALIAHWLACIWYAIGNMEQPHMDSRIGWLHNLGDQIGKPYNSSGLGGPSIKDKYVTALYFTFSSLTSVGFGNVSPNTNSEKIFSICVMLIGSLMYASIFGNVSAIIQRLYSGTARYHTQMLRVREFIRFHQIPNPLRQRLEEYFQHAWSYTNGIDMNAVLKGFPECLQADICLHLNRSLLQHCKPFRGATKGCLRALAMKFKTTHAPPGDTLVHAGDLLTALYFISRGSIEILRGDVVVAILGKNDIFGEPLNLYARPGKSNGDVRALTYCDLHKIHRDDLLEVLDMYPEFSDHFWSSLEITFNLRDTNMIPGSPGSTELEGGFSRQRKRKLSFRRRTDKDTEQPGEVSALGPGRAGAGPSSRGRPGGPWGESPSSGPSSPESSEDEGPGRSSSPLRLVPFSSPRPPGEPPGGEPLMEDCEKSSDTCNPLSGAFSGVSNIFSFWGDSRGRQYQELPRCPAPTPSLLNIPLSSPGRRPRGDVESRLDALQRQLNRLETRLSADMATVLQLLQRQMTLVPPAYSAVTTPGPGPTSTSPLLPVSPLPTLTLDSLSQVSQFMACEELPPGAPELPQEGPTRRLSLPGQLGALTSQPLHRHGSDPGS
For the compound `Cc1nn(C(C)C(=O)N2CCOCC2)c(=O)c2nn(-c3ccccc3)c(C)c12` (stereo not shown), the “hERG current change (%, negative = inhibition) at 10uM” value came out at 5.93%. Consider `CC(Oc1ccc(Cl)cc1Cl)C(=O)Nc1ccc(S(=O)(=O)Nc2cnc3ccccc3n2)cc1` (stereo not shown), for which the “hERG current change (%, negative = inhibition) at 10uM” value is listed as -17.7%.

Take `Cc1cccc(NC(=O)Nc2ccc([N+](=O)[O-])cc2)n1`: the “hERG current change (%, negative = inhibition) at 10uM” value was determined as 12.2%. The result for `Cc1cccc(NC(=S)c2nc3ccccc3s2)c1` reads 10.8%; that for `O=C(NCc1ccco1)c1nc2ccccc2s1`, 0.532%. For `CCOc1ccccc1Oc1c(C)oc2c(CN3CCN(CCO)CC3)c(O)ccc2c1=O`, the “hERG current change (%, negative = inhibition) at 10uM” value is recorded as 17.1%. Consider `COc1ccc(/C=N/NC(=O)CN2CCSCC2)c(OC)c1`, for which the “hERG current change (%, negative = inhibition) at 10uM” value was 8.66%. `COC(=O)CCC(=O)Nc1nnc(C(F)(F)F)s1`: the “hERG current change (%, negative = inhibition) at 10uM” value is listed as 5.15%. On to `Cc1cc(C(=O)COC(=O)c2ccc3c(c2)OCO3)c(C)n1Cc1cccs1`, for which the “hERG current change (%, negative = inhibition) at 10uM” value stood at 19.8%. Consider `CN1C(=O)C2(c3ccccc31)c1c(oc3ccccc3c1=O)C(=O)N2CCO` (stereo not shown), for which the “hERG current change (%, negative = inhibition) at 10uM” value turned out to be 5.17%. As for `COc1ccc(C(=O)C2CCCN(C(=O)Cn3ccc(C)n3)C2)cc1OC` (stereo not shown), the “hERG current change (%, negative = inhibition) at 10uM” value was found to be 19.1%.

Turning to `COCC(C)NS(=O)(=O)c1ccccc1` (stereo not shown), the “hERG current change (%, negative = inhibition) at 10uM” value came out at 12.7%.

For `O=C(CN1CCN(c2ccc(Cl)cc2)CC1)Nc1ccc(F)c(F)c1`, the “hERG current change (%, negative = inhibition) at 10uM” value is recorded as -18.7%. Regarding `CCCN=C(N)/C(C(=O)OCC)=C(\O)c1ccc(OC)cc1`, the “hERG current change (%, negative = inhibition) at 10uM” value is recorded as -5.54%. The result for `S=C(NCc1ccncc1)Nc1ccc(Br)cc1` reads -5.05%; that for `Cc1ccccc1CN(C)CCc1ccccn1.O=C(O)C(=O)O`, -7.25%. On to `COc1cc(S(=O)(=O)NC2CCCC2)c(OC)cc1C`, for which the “hERG current change (%, negative = inhibition) at 10uM” value came out at 1.17%. Turning to `Cn1c(SCC(=O)c2ccccc2)nnc1-c1ccncc1`, the “hERG current change (%, negative = inhibition) at 10uM” value was -0.277%.

For the compound `CCOc1ccc(CCNC(=O)Cn2cccc2C(=O)c2ccccc2)cc1OCC`, the “hERG current change (%, negative = inhibition) at 10uM” value is given as -2.85%.

Take `CC1CCCCC1NC(=O)COC(=O)c1ccccc1NC(=O)c1ccco1` (stereo not shown): the “hERG current change (%, negative = inhibition) at 10uM” value is listed as -6.14%. For `COCC(C)NC(=O)CCc1nnc(C2(c3ccc(Cl)cc3)CCC2)o1` (stereo not shown) the value was 5.14%.

Regarding `Cc1csc(NC(=O)CN2CCCCCC2)n1.O=C(O)C(=O)O`, the “hERG current change (%, negative = inhibition) at 10uM” value is 14.3%. With `COC(=O)c1cc(OC)c(OC)c(OC)c1N`, the “hERG current change (%, negative = inhibition) at 10uM” value is on record as 18.3%. With `O=S(=O)(Nc1cccc2ccccc12)N1CCCC1`, the “hERG current change (%, negative = inhibition) at 10uM” value is -8.59%. The result for `Cc1ccc2c(c1)-c1c(cnn1CC(=O)NC(C)CCc1ccco1)CO2` (stereo not shown) reads -16%. Regarding `O=P(NCc1ccccc1)(Oc1ccccc1)Oc1ccccc1`, the “hERG current change (%, negative = inhibition) at 10uM” value is listed as -15.6%. The result for `O=C(COC(=O)C1=COCCO1)NC1CCCCCCC1` reads 8.63%; that for `CN(C1CCS(=O)(=O)C1)S(=O)(=O)c1ccccc1[N+](=O)[O-]` (stereo not shown), 14.1%; that for `Cc1ccccc1OCC(=O)NCC(c1cccs1)N1CCOCC1` (stereo not shown), -17.3%.

As for `CCOC(=O)CSc1nc2ccccc2n2cnnc12`, the “hERG current change (%, negative = inhibition) at 10uM” value is given as -1.76%.

Turning to `Cc1ccc(NC(=O)C2C3CCC(O3)C2C(=O)O)cc1C` (stereo not shown), the “hERG current change (%, negative = inhibition) at 10uM” value was 2.33%. For the compound `Cc1ccc(C)c(NC(=O)CSc2cccc3cccnc23)c1`, the “hERG current change (%, negative = inhibition) at 10uM” value is recorded as 5.67%. In the case of `CN(C)CCCNCC(=O)Nc1ccc(Cl)cc1C(=O)c1ccccc1.O=C(O)C(=O)O`, the “hERG current change (%, negative = inhibition) at 10uM” value is reported as -69%. As for `Cn1c(=O)c2c(nc(OCC3COC(C)(C)O3)n2Cc2ccccc2F)n(C)c1=O` (stereo not shown), the “hERG current change (%, negative = inhibition) at 10uM” value is on record as -5.39%.

For `CC(C)CNS(=O)(=O)c1ccc(CCC(=O)NCc2ccco2)cc1`, the “hERG current change (%, negative = inhibition) at 10uM” value is recorded as -1.29%. For `CCCn1nc(C(=O)OCC(=O)c2ccccc2)c2ccccc2c1=O`, the “hERG current change (%, negative = inhibition) at 10uM” value was determined as 0.569%. On to `O=C(Oc1nsnc1N1CCOCC1)N1CCCCC1`, for which the “hERG current change (%, negative = inhibition) at 10uM” value came out at 7.96%.

As for `CC(C)/C=N/NC(=O)c1cccc(N2CCCC2=O)c1`, the “hERG current change (%, negative = inhibition) at 10uM” value is reported as -1.8%.

Take `COC(=O)C(CCSC)NS(=O)(=O)c1ccc(Cl)cc1` (stereo not shown): the “hERG current change (%, negative = inhibition) at 10uM” value turned out to be 4.36%. For the compound `Cl.NCCc1nnc(SCc2ccc(F)cc2)o1`, the “hERG current change (%, negative = inhibition) at 10uM” value is -0.73%. As for `C=CCN(C(=O)Cn1nnc2ccccc21)C(C(=O)NCCOC)c1ccc(OC)cc1OC` (stereo not shown), the “hERG current change (%, negative = inhibition) at 10uM” value was 4.46%. In the case of `COc1ccc(COC(=O)c2cc(S(=O)(=O)N3CCCCC3)ccc2N2CCOCC2)cc1`, the “hERG current change (%, negative = inhibition) at 10uM” value is -2.9%. As for `C/C(Cc1ccccc1)=N\NC(=O)CCCCCC(=O)N/N=C(\C)Cc1ccccc1`, the “hERG current change (%, negative = inhibition) at 10uM” value was found to be 1.8%. For `O=C1c2ccccc2C(=O)N1c1ccc(S(=O)(=O)N2CCCCC2)cc1` the value was 15.4%; for `COC(=O)c1cc(OC)c(OC)cc1NC(=O)CSc1ccccc1`, -18.3%. For `CCN(Cc1ccccc1)C(=O)CSc1nncn1C`, the “hERG current change (%, negative = inhibition) at 10uM” value is 16.5%. Consider `Cc1nc(NC(=O)c2ccco2)sc1C(=O)Nc1ccc(Br)cc1`, for which the “hERG current change (%, negative = inhibition) at 10uM” value is -0.952%.

On to `O=S(=O)(c1cccs1)N1CCC(CO)(Cc2ccc(Cl)cc2)CC1`, for which the “hERG current change (%, negative = inhibition) at 10uM” value is recorded as -7.74%.

Consider `COC(=O)c1ccc2nc(C)cc(Nc3ccc(N(C)C)cc3)c2c1.Cl`, for which the “hERG current change (%, negative = inhibition) at 10uM” value is -67.1%.

As for `N#Cc1c(-c2ccc(Cl)cc2)cc(-c2cccs2)nc1SCC(=O)O`, the “hERG current change (%, negative = inhibition) at 10uM” value came to 29.7%. Consider `CC1CCc2sc(C(=O)NN=C3CCC(c4ccccc4)CC3)cc2C1` (stereo not shown), for which the “hERG current change (%, negative = inhibition) at 10uM” value is reported as 10.6%. For `COc1ccccc1-c1noc(Cn2cc(S(=O)(=O)N3CCCC3)ccc2=O)n1`, the “hERG current change (%, negative = inhibition) at 10uM” value is -3.72%. In the case of `O=C(c1cccc(Cl)c1)c1nn(-c2ccccc2)c(=O)cc1C(F)(F)F`, the “hERG current change (%, negative = inhibition) at 10uM” value is given as 7.57%.

In the case of `Cc1ccc(NC(=O)NC2CCCN2S(=O)(=O)c2ccc(Cl)cc2)cc1` (stereo not shown), the “hERG current change (%, negative = inhibition) at 10uM” value is on record as -16.4%. Take `COCCn1c(SCc2ccc(Cl)cc2)nc2c1c(=O)[nH]c(=O)n2C`: the “hERG current change (%, negative = inhibition) at 10uM” value is reported as -16.5%. With `CCC(C)Sc1ccc([C@H]2N[C@@](CC(C)C)(C(=O)OC)[C@H]3C(=O)N(CC)C(=O)[C@@H]23)cc1.O=C(O)C(F)(F)F` (stereo partly shown), the “hERG current change (%, negative = inhibition) at 10uM” value is reported as -13.9%. For `CC(C)NC(=O)N(O)C1N(C(C)C)C(=O)N(Cc2ccc3c(c2)OCO3)C1(C)C` (stereo not shown) the value was 12.2%; for `Cn1c2ccccc2c(=O)c2c(=O)n(C3CCCCC3)c(-c3cccs3)nc21`, -66.1%.
